From paper PMC6212790
Some of the results follow. At the low end of the ranking, values are background and their order means little.

Target: T1, GST-Rok (full length) (UniProt O34857)
T1 sequence: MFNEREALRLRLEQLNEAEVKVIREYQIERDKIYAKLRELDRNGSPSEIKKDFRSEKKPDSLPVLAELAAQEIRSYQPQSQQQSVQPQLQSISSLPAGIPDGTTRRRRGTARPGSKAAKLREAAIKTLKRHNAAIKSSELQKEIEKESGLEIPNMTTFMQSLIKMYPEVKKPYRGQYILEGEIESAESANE
Assay: protein binding microarray;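 further: rank score from −0.5 (least bound) to 0.5 (best bound)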
Conditions: Rok is a gene silencer of Bacillus subtilis; high values mean tight binding; most listed sequences are background and not binding sites; double strand, one strand shown

Sequence	binding signal [E-score]
AAGCGGGC	-0.296
GAAGTTCC	-0.0907
CAGGGATC	-0.297
CACATTCG	0.00372
GTAGTGAC	0.0782
CATAAAGC	-0.123
GGAAGACC	-0.262
ACCGGTAG	0.374
ACTAACAA	0.24
GAAACCCC	-0.326
CCCAGGTA	0.0209
GTCGCTCA	-0.101
CCAACCGG	-0.0809
ACGCGGAT	0.0612
ACAGGCAA	-0.106
GCAAGAGC	-0.0382
GTCTGTCA	-0.184
GTTAACTA	0.359
TGGTCTAA	0.0149
ACGCGCGT	-0.152
GCAGGTCC	-0.35
TCATGGCA	-0.127
AGTAGGCC	-0.103
CAGTTGAG	-0.000936

Sequence	binding signal [E-score]
ACTGATCG	0.073
ATTACTGG	-0.0684
ACCACGAA	-0.0207
ACCCGAGT	-0.176
GCGTGCAC	-0.18
CAGTCCGA	-0.0315
GAACTATA	0.289
CTTTTCTC	-0.00403
CCATAGCG	-0.00718
CTAAGTGC	-0.183
CCATTCCC	-0.201
AGTCCTAT	0.0715
ACGCTCAA	0.114
CACTTAAC	0.0737
CAGAGAAG	0.00425
CCTTAGGC	-0.233
TCTATGAA	0.074
GGGCTACA	-0.0889
CGCTTTAA	-0.0788
CAGTACGC	0.0501
GCATAGGC	-0.0277
AAATTACA	0.301
ACAGCTGT	-0.0251
CCATTCTA	0.326

Sequence	binding signal [E-score]
ACCATTCA	0.0829
ACGTATAT	0.365
GTGCACCA	-0.142
CAACCAAG	0.0888
CCGGGCAC	-0.303
CCAACAAC	-0.112
ATGTGTGC	-0.161
ACCGCCAT	-0.14
CACGTCAA	0.00857
ATTTGTCC	-0.0469
ATACCACA	0.208
ACTATGGG	0.0124
CCATGATA	0.0859
ATATATAC	0.396
AATGAGGC	-0.221
AGTTACCA	0.261
ATTCGAGG	0.107
ATCACAGC	0.191
TACTACAA	0.357
ATCACCTG	0.197
ACGGCAAG	-0.0527
ATACGGCC	-0.21
AAATCTCT	0.1
CTGTAGAA	0.345

Sequence	binding signal [E-score]
GCTCTCTA	-0.154
CTGGCTCA	0.0475
ATTATTGA	0.182
GGCGTCGA	-0.283
ATAATATG	0.232
AGCAAAAC	-0.0428
CTATCAAA	0.279
ATCTCTCA	0.128
CGGCTATC	-0.0522
GACATACA	0.0575
GAGTGCGC	-0.287
AATGTCCC	-0.237
GAGATCCA	-0.000368
AGCTAACC	0.0976
ACGGGGCA	-0.116
CAGCGACC	-0.155
CTACCTTA	0.264
CCAGCGGC	-0.305
GCAAGCGC	-0.158
ATGGTGGG	-0.292
CAGTTAAA	0.274
CAGAGTGA	-0.117
